# Measured values: paper PMC6212790
# This is one part of the list. At the low end of the ranking the order means little.
# Biological target: T1, GST-Rok-C97-191 (UniProt O34857)
# T1 sequence: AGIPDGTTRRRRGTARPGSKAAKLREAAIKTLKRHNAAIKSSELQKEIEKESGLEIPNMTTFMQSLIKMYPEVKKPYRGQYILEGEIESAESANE
# Experiment: protein binding microarray;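 further: rank score from −0.5 (least bound) to 0.5 (best bound)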
# Conditions: Rok is a gene silencer of Bacillus subtilis; high values mean tight binding; most listed sequences are background and not binding sites; double strand, one strand shown
row,Sequence,binding signal
1,CAACCTGC,-0.149 E-score
2,AAATTGAC,0.159 E-score
3,GAAGGCTC,-0.292 E-score
4,CTTCTTTA,-0.142 E-score
5,AGCAGCGA,0.0497 E-score
6,GGCAACTA,0.265 E-score
7,GTGATTCA,-0.0286 E-score
8,CTTGCATC,-0.0243 E-score
9,CTCTCTAC,0.064 E-score
10,CGTATGCA,-0.0434 E-score
11,ATCGGGGC,-0.214 E-score
12,CCGCGCGC,-0.154 E-score
13,CTCAAGTA,0.25 E-score
14,ACTAAAGG,-0.0388 E-score
15,AGTGAGGA,-0.098 E-score
16,CTGGCCAC,-0.152 E-score
17,CGTCGGCC,-0.242 E-score
18,ACTCGATG,0.0705 E-score
19,GTGTAGCA,0.175 E-score
20,TACTTGAA,-0.0128 E-score
21,TATGCGGA,-0.00837 E-score
22,CGGCACCA,-0.137 E-score
23,AGCCGAGC,-0.319 E-score
24,TCATCAGA,0.00127 E-score
25,TATCGTAA,0.284 E-score

row,Sequence,binding signal
1,ACCTATAT,0.311 E-score
2,CACGAGCG,-0.277 E-score
3,AGCGGCTA,-0.035 E-score
4,ACGCTTAG,-0.236 E-score
5,ATCCCAGA,-0.0692 E-score
6,GACCCTGC,-0.165 E-score
7,CTTAATAA,0.0347 E-score
8,TAGTGGAA,0.176 E-score
9,GCCTCGCC,-0.323 E-score
10,GAAGAGAA,0.00168 E-score
11,ACGGAGAC,-0.171 E-score
12,CAGTATAG,0.193 E-score
13,CACTCCCC,-0.348 E-score
14,AGATCGTA,0.105 E-score
15,ACCTGAAA,-0.227 E-score
16,AAAACCAT,-0.0016 E-score
17,ATCCGGAT,-0.0619 E-score
18,GTAGCGCA,0.000708 E-score
19,CAGCAGAA,-0.119 E-score
20,CAAGTGGA,-0.172 E-score
21,CGGAACGC,-0.22 E-score
22,CAATTAAC,0.0689 E-score
23,ATTAATTG,0.198 E-score
24,AGGGCCAT,-0.00123 E-score
25,AGGAACCT,-0.109 E-score

row,Sequence,binding signal
1,ATAAGTAC,0.318 E-score
2,AGGAAAGG,-0.15 E-score
3,GGACTGCA,-0.224 E-score
4,ATATGTGC,0.192 E-score
5,AAAGTCTA,-0.0542 E-score
6,CGTTGCGC,-0.322 E-score
7,ATCTCCGG,0.0557 E-score
8,AATCTGTG,-0.0756 E-score
9,AATAAGGG,-0.0328 E-score
10,CACTGCCG,-0.363 E-score
11,CAGTATAA,0.213 E-score
12,AACGGACT,-0.164 E-score
13,GCGGACCC,-0.19 E-score
14,AAGTTTGC,-0.018 E-score
15,GAAATTCA,0.106 E-score
16,CACGGGCA,-0.13 E-score
17,CCAGATGA,0.0133 E-score
18,TCGTATCA,-0.014 E-score
19,TTGTCAAA,-0.0149 E-score
20,ATGTGTCG,0.0515 E-score
21,GCATGGCC,-0.274 E-score
22,CAACTAAA,0.234 E-score
23,AGTGTATG,0.285 E-score
24,GTGTGCAA,-0.179 E-score
25,ATGTACCA,0.335 E-score

row,Sequence,binding signal
1,ACTAGTAG,0.404 E-score
2,AGCATGCT,0.0502 E-score
3,ATCCTCCC,-0.0879 E-score
4,CAGCACGC,-0.356 E-score
5,AATTTGTC,0.165 E-score
6,CGAACAAA,0.0673 E-score
7,GGATACAC,-0.0263 E-score
8,CCGATGGA,-0.103 E-score
9,CAATGAAG,-0.133 E-score
10,GATGCTAC,0.0441 E-score
11,GGGACCCA,-0.304 E-score
12,TCCCTTCA,-0.284 E-score
13,CAACGGCG,-0.252 E-score
14,AATGAGAG,-0.145 E-score
15,AATTCGTG,0.0111 E-score
16,GAAGCCTA,0.0741 E-score
17,ATGTTCAC,0.122 E-score
18,GTTCGGTA,-0.0461 E-score
19,GCGAACAA,0.13 E-score
20,TGGACAAA,-0.139 E-score
21,CTTCCCCC,-0.267 E-score
22,CCCCGGAA,-0.248 E-score
23,GGGTGTCA,-0.0897 E-score
24,CGGTGAAC,-0.0556 E-score
25,CTGTCCAA,-0.154 E-score

row,Sequence,binding signal
1,AACAGCGT,-0.0978 E-score
2,CACGCACG,-0.115 E-score
3,AGAGAGGC,-0.18 E-score
4,ATCACACG,-0.000509 E-score
5,AGGAGAGC,-0.179 E-score
6,ACCCCTCC,-0.313 E-score
7,CTCACCGA,-0.144 E-score
8,AATAGGAT,0.246 E-score
9,GGCACCCA,-0.224 E-score
10,ATCGAGAA,0.145 E-score
11,ACGTGGCG,-0.166 E-score
12,CAACTAGA,0.255 E-score
13,AAAGGATG,-0.047 E-score
14,AAGTAGGG,0.267 E-score
15,AGACCTGG,-0.167 E-score
16,AGAAAAGC,0.217 E-score
17,CCGTACGC,0.0423 E-score
18,ACAGTGGG,-0.00225 E-score
19,AGGAAGCA,-0.1 E-score
20,ACGTCTCC,-0.157 E-score
21,GTCGCAAC,-0.112 E-score
22,AGGACTCA,0.0293 E-score
23,CACCTCTA,-0.103 E-score
24,CGAGAATC,-0.217 E-score
25,ACAACTAG,0.306 E-score

row,Sequence,binding signal
1,GCAGACAC,0.0935 E-score
2,ACCACCCC,-0.251 E-score
3,GAACTACA,0.252 E-score
4,ACGTCACC,-0.186 E-score
5,AGCTACGG,-0.00912 E-score
6,CAGTCTGG,-0.185 E-score
7,AAATAAGG,0.1 E-score
8,CGGTAAAG,0.0577 E-score
9,AGATGCGA,-0.0935 E-score
10,AGGCGGTA,-0.0681 E-score
11,AAGGATCG,-0.00172 E-score
12,TAGGCCAA,0.0269 E-score
13,CCTGCCCC,-0.308 E-score
14,AACGATTC,0.0496 E-score
15,TTGCACAA,0.0241 E-score
16,ATCATTCA,-0.0332 E-score
17,CAAATCTG,-0.15 E-score
18,CTTAGAAA,0.103 E-score
19,CGGGTAAC,0.0536 E-score
20,ACGCTTCG,-0.153 E-score
21,ATAAGGTC,-0.0317 E-score
22,AGGGAAAC,-0.0931 E-score
23,CGTGCGTA,-0.153 E-score
24,TAAGCGTA,0.0574 E-score
25,CAGAAACA,0.099 E-score

row,Sequence,binding signal
1,GTGCAACA,-0.231 E-score
2,ACCCACGA,-0.0397 E-score
3,AAAGCGAA,-0.078 E-score
4,AGGGGATG,-0.11 E-score
5,TATAGAAA,0.397 E-score
6,AGTCCCGC,-0.272 E-score
7,CAGCGTAG,-0.0938 E-score
8,AAACAGCA,0.0841 E-score
9,AGCGTTAA,0.0388 E-score
10,AGCGCCTA,-0.115 E-score
11,GATAGTGA,0.12 E-score
12,ATTCATCA,0.0772 E-score
13,AATATACG,0.225 E-score
14,ACATGACG,0.172 E-score
15,ATTATAAT,0.313 E-score
16,GACATCAA,-0.0521 E-score
17,AATTACGA,0.315 E-score
18,AAAGAAGT,-0.00409 E-score
19,AAAGAAAG,0.153 E-score
20,AAGCCAGA,-0.258 E-score
21,AAGTCGGC,-0.116 E-score
22,AACTGGCC,0.0448 E-score
23,GGATCCCC,-0.276 E-score
24,ATCAAACA,0.0963 E-score
25,CCATACGC,0.0514 E-score

row,Sequence,binding signal
1,AGATCGCT,0.152 E-score
2,ATGGGGAA,0.0488 E-score
3,CGTCTTGC,-0.0463 E-score
4,AAATCGCT,0.244 E-score
5,TGCTGTAA,0.0575 E-score
6,ACTGAGAG,-0.0408 E-score
7,AGCTGACC,-0.219 E-score
8,AGCCTGAA,-0.0948 E-score
9,CCAGGAGC,-0.182 E-score
10,AGCGCGCC,-0.355 E-score
11,AGGTACCC,-0.0909 E-score
12,TGCGTGAA,0.0412 E-score
13,GATAAGTA,0.238 E-score
14,CAGCCGTC,-0.113 E-score
15,AGATTGGA,0.155 E-score
16,CTCGTACA,-0.101 E-score
17,GCCATAGA,0.036 E-score
18,TCGTGGCA,-0.199 E-score
19,GCTCACAC,0.0636 E-score
20,GACGCATA,-0.112 E-score
21,AGATGTGA,-0.144 E-score
22,GAGAGAGC,-0.17 E-score
23,ACTTCCCA,-0.055 E-score
24,AGACGGGA,-0.224 E-score
25,ACGTGTCC,-0.0293 E-score

row,Sequence,binding signal
1,AGCCGGAT,0.00464 E-score
2,CGCATGAG,-0.138 E-score
3,CGATCCAC,-0.181 E-score
4,GGGATTAA,0.0675 E-score
5,AGACCGGG,-0.236 E-score
6,CACGTTCA,-0.0436 E-score
7,CTCCATCC,-0.191 E-score
8,GTCGACAC,-0.208 E-score
9,CCTCTAAA,-0.0294 E-score
10,CCGGCTCC,-0.22 E-score
11,CCATACAG,-0.209 E-score
12,GCCTTATA,-0.00735 E-score
13,GAACGAGC,-0.332 E-score
14,ATGGTTAA,0.22 E-score
15,ACGCCAAT,-0.095 E-score
16,CCAGGTCA,-0.0861 E-score
17,AAGTTGCT,0.224 E-score
18,CAGCAAAC,-0.0196 E-score
19,AATGCCAA,-0.104 E-score
